The results in this text go back to a collection of fitness landscapes (doi:10.1038/s41467-024-54723-y).

The full ranking holds about 18,000 sequences; the median of “TetR repression strength (sort-seq, GFP reporter)” is about 0.23, and the highest 2% start at about 0.68. The list shows a part of the results.

UniProt P04483, sequence (P04483 whole entry): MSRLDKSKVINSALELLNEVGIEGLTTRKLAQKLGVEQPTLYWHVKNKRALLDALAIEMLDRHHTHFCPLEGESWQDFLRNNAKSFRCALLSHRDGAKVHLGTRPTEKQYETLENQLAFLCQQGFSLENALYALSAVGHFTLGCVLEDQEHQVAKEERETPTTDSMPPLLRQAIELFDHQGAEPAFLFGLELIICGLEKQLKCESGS

This assay concerns the target TetR (class B, Tn10) (UniProt P04483). The experiment in a line: TetR repression strength (sort-seq, GFP reporter) (relative to tetO2 = 1); higher = stronger repression. The conditions noted are these: E. coli. In outline:
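In LB with 50 µg/mL chloramphenicol, E. coli SIG10-MAX holding a low-copy library with eight randomized operator positions between a constitutive promoter and sfGFP, plus constitutive TetR, grew for 5 h at 37 °C. FACS then sorted 10^6 cells into 13 fluorescence bins for Illumina sequencing of each bin. Repression strength equals the top bin index plus one less the read-weighted mean bin, normalized to the unaltered operator. Values from three independent transformations were averaged when reads were ≥30 in every replicate and the CV was ≤0.5.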
For the sequence TCCCTAGCAGTAGTAGAGA, the TetR repression strength is 0.681.

In turn, TCCCGCGTAGTATAGGAGA gave a TetR repression strength of 0.2.

In the case of TCCCATTGAGTCGATGAGA, the TetR repression strength was found to be 0.166.

As to TCCCATCTAGTTGGAGAGA, the TetR repression strength came out at 0.371.

TCCCCAAGAGTCTTGGAGA yielded a TetR repression strength of 0.193.

Take TCCCATACAGTGAAAGAGA: the TetR repression strength is 0.353.

Take TCCCCGTGAGTTTCTGAGA: the TetR repression strength came to 0.181.

Consider TCCCGGGCAGTGGTTGAGA, for which the TetR repression strength is 0.334.

With TCCCCTCTAGTGAGTGAGA, the TetR repression strength came out at 0.23.

TCCCACAGAGTGACGGAGA: the TetR repression strength is 0.0886.

As for TCCCTGGGAGTGGTAGAGA, the TetR repression strength was 0.221.

Consider TCCCGGCAAGTTAGTGAGA, for which the TetR repression strength turned out to be 0.0764.

In the case of TCCCCTTTAGTGCCTGAGA, the TetR repression strength was 0.523.

Sequence TCCCTACTAGTTGTCGAGA came in with a TetR repression strength of 0.289.

TCCCCATAAGTAGAAGAGA returned a TetR repression strength of 0.443.

TCCCAGCGAGTGGGTGAGA showed a TetR repression strength of 0.101.

On to TCCCAGGGAGTAGCTGAGA, for which the TetR repression strength was 0.21.

Consider TCCCAGGTAGTGGCGGAGA, for which the TetR repression strength worked out at 0.176.

On to TCCCGGACAGTTACAGAGA, for which the TetR repression strength was found to be 0.677.

For TCCCGCTAAGTTAATGAGA, the TetR repression strength is 0.126.

As to TCCCAGGCAGTCGGGGAGA, the TetR repression strength is 0.171.

Sequence TCCCAGGCAGTCGTGGAGA yielded a TetR repression strength of 0.28.

Regarding TCCCGAACAGTTTTTGAGA, the TetR repression strength came to 0.244.

With TCCCACAAAGTCAGGGAGA, the TetR repression strength was determined as 0.104.

TCCCAAATAGTTTAAGAGA displayed a TetR repression strength of 0.373.

With TCCCACCGAGTGGGAGAGA, the TetR repression strength came out at 0.359.

TCCCGGTAAGTGGGAGAGA gave a TetR repression strength of 0.453.

With TCCCGTGCAGTGAATGAGA, the TetR repression strength worked out at 0.276.

Consider TCCCTATCAGTTGGCGAGA, for which the TetR repression strength came out at 0.445.

Regarding TCCCGGTAAGTCCGCGAGA, the TetR repression strength is 0.101.

For TCCCGGTGAGTAGCCGAGA, the TetR repression strength was found to be 0.0389.

As for TCCCGTCCAGTTGCTGAGA, the TetR repression strength stood at 0.143.

As to TCCCAGTGAGTCGTGGAGA, the TetR repression strength came out at 0.25.

TCCCTTGCAGTGTGTGAGA came in with a TetR repression strength of 0.206.

In the case of TCCCGCTGAGTCAGGGAGA, the TetR repression strength came to 0.327.

The sequence TCCCCACTAGTATTCGAGA displayed a TetR repression strength of 0.518.

TCCCCAGAAGTATGGGAGA: the TetR repression strength worked out at 0.314.

The sequence TCCCTTTCAGTTATAGAGA displayed a TetR repression strength of 0.649.

On to TCCCGTGGAGTGCTTGAGA, for which the TetR repression strength is 0.0518.

For TCCCCTTCAGTGAAGGAGA, the TetR repression strength was determined as 0.702.

For the sequence TCCCGTTCAGTGGCGGAGA, the TetR repression strength was found to be 0.249.

As to TCCCGATGAGTTGCGGAGA, the TetR repression strength is 0.194.

As for TCCCGGGAAGTTTGCGAGA, the TetR repression strength stood at 0.17.

As for TCCCAACGAGTGGGGGAGA, the TetR repression strength was determined as 0.31.

For the sequence TCCCCGTCAGTTGGTGAGA, the TetR repression strength was determined as 0.216.

On to TCCCTTAGAGTGATGGAGA, for which the TetR repression strength came out at 0.284.

TCCCTCTTAGTCAGGGAGA: the TetR repression strength came to 0.538.

TCCCCAATAGTCGAAGAGA displayed a TetR repression strength of 0.347.

The sequence TCCCCTTCAGTGCTGGAGA had a TetR repression strength of 0.149.

Sequence TCCCCATAAGTGATGGAGA returned a TetR repression strength of 0.397.

For TCCCATGAAGTGGATGAGA, the TetR repression strength was 0.0204.

In the case of TCCCGTGGAGTTGGTGAGA, the TetR repression strength was 0.246.

For the sequence TCCCCACAAGTAGGAGAGA, the TetR repression strength is 0.322.

In the case of TCCCATCCAGTCGATGAGA, the TetR repression strength stood at 0.0703.

The sequence TCCCGTTGAGTATGAGAGA registered a TetR repression strength of 0.232.

As to TCCCGAAGAGTGAATGAGA, the TetR repression strength was found to be 0.397.

With TCCCGCATAGTGTAGGAGA, the TetR repression strength came out at 0.432.

For the sequence TCCCACTGAGTAGCGGAGA, the TetR repression strength stood at 0.242.

For TCCCCGACAGTTGTTGAGA, the TetR repression strength came out at 0.435.

For TCCCGAGTAGTGTTCGAGA, the TetR repression strength stood at 0.

Turning to TCCCCGCAAGTAAACGAGA, the TetR repression strength is 0.426.

In turn, TCCCGTAGAGTAGTAGAGA gave a TetR repression strength of 0.234.

As for TCCCAACAAGTGTAAGAGA, the TetR repression strength came out at 0.523.

In the case of TCCCGGCCAGTTAGAGAGA, the TetR repression strength worked out at 0.129.

The sequence TCCCATTTAGTCTGGGAGA came in with a TetR repression strength of 0.258.

For TCCCATCCAGTGACAGAGA, the TetR repression strength came out at 0.612.

On to TCCCAGCGAGTCTTCGAGA, for which the TetR repression strength was 0.216.

With TCCCCGTTAGTGAGAGAGA, the TetR repression strength worked out at 0.141.

TCCCGATGAGTATAGGAGA: the TetR repression strength stood at 0.309.

With TCCCCGGGAGTCTCAGAGA, the TetR repression strength stood at 0.476.

TCCCGCAGAGTGTCTGAGA displayed a TetR repression strength of 0.216.

As for TCCCCTGAAGTGCAGGAGA, the TetR repression strength came to 0.269.

TCCCGGTGAGTAGCAGAGA displayed a TetR repression strength of 0.336.

With TCCCGTGGAGTGGTGGAGA, the TetR repression strength came to 0.227.

In turn, TCCCTATCAGTTATTGAGA gave a TetR repression strength of 0.504.

TCCCTGGCAGTTGGGGAGA displayed a TetR repression strength of 0.07.

The sequence TCCCGGGAAGTGCCTGAGA registered a TetR repression strength of 0.0832.

TCCCGGGCAGTATAGGAGA showed a TetR repression strength of 0.25.

Take TCCCGGCCAGTGAGCGAGA: the TetR repression strength was 0.233.

TCCCGCCGAGTCCAAGAGA displayed a TetR repression strength of 0.425.

Consider TCCCGGGTAGTGTCGGAGA, for which the TetR repression strength was 0.26.

Regarding TCCCGGGTAGTCGGGGAGA, the TetR repression strength was 0.247.

For TCCCTGCGAGTTGCAGAGA, the TetR repression strength is 0.166.

In the case of TCCCCGTTAGTCCCCGAGA, the TetR repression strength was 0.267.

With TCCCGCTCAGTACGCGAGA, the TetR repression strength is 0.104.

In the case of TCCCCAAGAGTATCTGAGA, the TetR repression strength worked out at 0.227.

With TCCCAAAGAGTGGTAGAGA, the TetR repression strength came to 0.164.

The sequence TCCCAGTTAGTAGTGGAGA had a TetR repression strength of 0.341.

As to TCCCGTAAAGTGAGGGAGA, the TetR repression strength was 0.105.

In turn, TCCCTGTCAGTGCTAGAGA returned a TetR repression strength of 0.514.

For TCCCGGGCAGTTGCGGAGA, the TetR repression strength amounted to 0.261.

On to TCCCGTGTAGTCCCGGAGA, for which the TetR repression strength worked out at 0.163.

In the case of TCCCTCGGAGTATCGGAGA, the TetR repression strength was 0.276.

Sequence TCCCCATGAGTGAGTGAGA registered a TetR repression strength of 0.164.

TCCCTGGAAGTAGAGGAGA came in with a TetR repression strength of 0.128.

Turning to TCCCTAAAAGTAGGCGAGA, the TetR repression strength was 0.114.

TCCCGTCGAGTCAAGGAGA yielded a TetR repression strength of 0.518.

In turn, TCCCGTGCAGTCAATGAGA gave a TetR repression strength of 0.171.

TCCCGCTAAGTAGAAGAGA: the TetR repression strength is 0.202.

Regarding TCCCCGCTAGTTAGGGAGA, the TetR repression strength was 0.253.

In turn, TCCCGGCAAGTCGGGGAGA came in with a TetR repression strength of 0.249.

Regarding TCCCTGGCAGTCAGGGAGA, the TetR repression strength was 0.291.
